According to PubChem BioAssay AID504706 (National Center for Advancing Translational Sciences (NCATS), 2011):
The whole screen tested about 320,000 compounds, of which about 200 (0.062%) were called active. The inconclusive results got no clear call from the source; some entries with a clear call stand among them for comparison. Calls come from the whole dose curve; as a rule, active = well fitted activation curve with a large enough effect; inconclusive = small, poorly fitted or top-dose-only effect; inactive = no such curve, though single readings can be large or run the other way. Potencies of inconclusive entries are left out as doubtful fits.

Assay: qHTS assay for re-activators of p53 using a Luc reporter; note: nearly all actives have a fitted effect of over 45% in size; for activity change, positive = activation: % of control where 0% means no effect
Settings: H1299 p53-A138V BP100-luciferase reporter, luminescence, 24 h; series mostly up to 92.2 µM; activity change, positive = activation: at the top concentration
How it was run: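 p53-null H1299 cells stably carrying temperature-sensitive p53-A138V and a BP100-luciferase reporter were pinned with compounds (4-point, 1:5 series) and held 24 hrs at 37 deg C. Luminescence was read 10 min after detection reagent.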
Potency is the fitted concentration of half-maximal effect; tags give direction and shape of the fitted curve.

Row | Structure (SMILES) | activity change, positive = activation | Potency
1 | Cc1ccc2c(=O)cc(C(=O)NC3CCS(=O)(=O)C3)oc2c1C (stereo unspecified) | inactive: -8.74% | 
2 | c1ccc(-n2ncc3c(NCc4cccs4)ncnc32)cc1 |  | inconclusive [activator, full curve, poor fit]
3 | CN1C=CC2=C(C#N)C(N)C(C#N)(C#N)C(c3ccccc3)C2C1 (stereo unspecified) | inactive: 3.23% | 
4 | Nc1nonc1C(=Nc1ccc(Br)cc1)NO | inactive: 0.116% | 
5 | Cc1nnc(NC(=O)c2ccccc2F)s1 |  | inconclusive [activator, partial curve, poor fit]
6 | Cc1csc(NC(=O)c2cc(C)on2)n1 |  | inconclusive [activator, full curve, poor fit]
7 | Clc1ccc(C2=Nc3cc(Cl)ccc3OC2)cc1 |  | inconclusive [activator, partial curve, poor fit]
8 | O=C(/C=C/c1ncc(C(F)(F)F)cc1Cl)OCc1ccccc1 | inactive: 6.97% | 
9 | COCC(=O)NNC(=O)c1ccccc1OC | inactive: 7.69% | 
10 | O=C(COC(=O)c1cccs1)Nc1ccc(F)c(F)c1 |  | inconclusive [activator, single point]
11 | CCOc1ccc(NS(=O)(=O)c2ccc3[nH]cc(C(=O)N(CC)CC)c(=O)c3c2)cc1 |  | inconclusive [activator, full curve, poor fit]
12 | CC/C(=N\Nc1nncc2ccccc12)c1ccc(F)cc1 |  | inconclusive [activator, partial curve, poor fit]
13 | N=c1n(CCCOc2ccccc2Cl)c2ccccc2n1CC(N)=O | inactive: 3.24% | 
14 | O=C(CCC(=O)c1cccs1)Nc1ccccc1F |  | inconclusive [activator, partial curve, poor fit]
15 | Brc1ccc(C2CC(c3ccccc3)=Nc3ccccc3N2)cc1 (stereo unspecified) |  | inconclusive [activator, partial curve, poor fit]
16 | Cc1ccc(-n2ncc3c(=O)n(CC(=O)N4CCN(c5ccccc5F)CC4)cnc32)cc1C |  | inconclusive [activator, single point]
17 | CCN(CC)S(=O)(=O)c1cccc(C(=O)NN2Cc3ccccc3C2=N)c1 | inactive: 6.09% | 
18 | CC(Oc1ccc(C(=O)c2ccc(F)cc2)cc1)C(=O)N1CCOCC1 (stereo unspecified) | inactive: -3.63% | 
19 | Cc1ccc(C(=O)NNC(=S)Nc2cccc3ccccc23)s1 |  | inconclusive [activator, partial curve, poor fit]
20 | Cc1ccccc1OCC(=O)Nc1cccc2nsnc12 |  | inconclusive [activator, partial curve, poor fit]
21 | O=C(NCCN1C(=O)S/C(=C\c2ccc(F)cc2)C1=O)c1cccc(S(=O)(=O)N2CCOCC2)c1 |  | inconclusive [activator, single point]
